Results on 22 molecules are retold here after publication PMC12136788.

This is one part of the list.

T1: UNK ZnF1-3 (human, UniProt Q9C0B0 31-174)
T1 sequence: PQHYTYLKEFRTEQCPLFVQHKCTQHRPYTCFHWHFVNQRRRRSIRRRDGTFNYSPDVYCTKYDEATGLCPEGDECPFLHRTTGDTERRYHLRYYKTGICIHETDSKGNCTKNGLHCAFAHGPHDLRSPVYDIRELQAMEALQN

B1: chr9:131455196:131455197:+_ENSG00000119335_ENST00000372688|hu_hu|FALSE|FALSE (ssRNA)
RNA: GGGAGUUCUACAGUCCGACGAUCAAAUUCUUUGGAGAGAACUUUAUUUUCAAAGUAAGGAUUUUCAUCAAAAUAAAAAUCUAUUCUGUAACCUGAUUUAAUAUCUUCAAAUUCUGUCACUUCAACUCUGGUCAAAUAAUGCAGCAACAGAGGAUUGAGCAUCA
B2: 115922778_115922898_456_CDS_ENSG00000165813_ENST00000369287|human|control|control (ssRNA)
RNA: GGGAGUUCUACAGUCCGACGAUCUGUUUUGGCACAAGAAUCCUCACCUCCACCAUGAUCUGGAAUAUAAUUUUCCUGGGCUUCAAUUCGAUUAUUAUGCUCAUUAGGUUGACAUAAAGUUUUAUCAGUGUUUAAUGACAAUAGCAACAGAGGAUUGAGCAUCA
B3: chr4:97781865:97781866:+_ENSMUSG00000028565_ENSMUST00000075448|mus_mus|FALSE|FALSE (ssRNA)
RNA: GGGAGUUCUACAGUCCGACGAUCUUGACCUAAACUGCCUUGGUCGGUGUUGCAUUUGCUUCCUGCUUGAUGACAACGGAACUACAAUUUCCUGCUGCUUUCUGGACAAUGAAGCAUGAGCAGACCAGAACUUGGUGUACUGACCAACAGAGGAUUGAGCAUCA
B4: 31253383_31253503_2257_3pUTR_ENSMUSG00000047714_ENSMUST00000060188|mouse|control|control (ssRNA)
RNA: GGGAGUUCUACAGUCCGACGAUCAAUAAAAGCCAUUUCAUAUAUAUAAUAUACAGAAAUUAUUUUAAAAGUCUGUCAUAUAACAGAUUCAUUUGGUGCUACCAAAAACUUACGAUACAAAUAAACAACUACAAAGGGAACCAUCAACAGAGGAUUGAGCAUCA
B5: 24911413_24911533_639_3pUTR_ENSMUSG00000006476_ENSMUST00000102931|mouse|control|control (ssRNA)
RNA: GGGAGUUCUACAGUCCGACGAUCCUGGGCACUCUUUGGAGCCCUGGCGGCUUCCUGCCCAGCUUUGGCAGGGCCUGCUGAUGUCCUCCCGGCUGCUGCCUGGGCUGGCACGCAGGGGCUGGCUGUGGUGGUGAGGGUGCCGUUCAACAGAGGAUUGAGCAUCA
B6: chr8:133025090:133025091:+_ENSG00000132294_ENST00000254624|hu_hu|motif|central (ssRNA)
RNA: GGGAGUUCUACAGUCCGACGAUCAUAAACAUUAAUUGUAAUGGUUUUCCUUUACAUGCAAUACAUGCAUUUUAAAAUCACGGAGAAACACGAAAUUUUGUAGAGCAAAGUUUGUGUUUCACGUAAGUGCAAAUGAAUAUAUAUCAACAGAGGAUUGAGCAUCA
B7: chr1:54681892:54681893:+_ENSG00000116221_ENST00000360840|hu_hu|FALSE|FALSE (ssRNA)
RNA: GGGAGUUCUACAGUCCGACGAUCCCAGGCCAAAUUCUUGACACCCUCGUUACAGUCCAGGUCUGUGGUAUUCAGUUGAAACACUAGGAAAUGGAAGACACGUCCAUCCGUGCCCACGCUCUGCACCACCACGGGCUGCUCCAACAACAGAGGAUUGAGCAUCA
B8: chr6:30403744:30403745:+_ENSMUSG00000029775_ENSMUST00000068259|mus_hu|motif|central (ssRNA)
RNA: GGGAGUUCUACAGUCCGACGAUCUAGGAAAGUUGAUUCACUGAUUAUCUAUGGAUUUCAAUGAUCUGUGCUUUACUCUUGCGGCUGUGGAUAACCAAAGGUCACUGUUAACGUAUCUUUUGCUUAAAAAUGUUAAUAUGCUUACAACAGAGGAUUGAGCAUCA
B9: chr1:100342015:100342016:+_ENSG00000162688_ENST00000361915|hu_hu|FALSE|FALSE (ssRNA)
RNA: GGGAGUUCUACAGUCCGACGAUCAGAUUCUUCCAUGGAGAAGUCUAUCUCUUCAAAUGGGAAAGUAAAAUACCUGGUAACUAAAGGAUGCUUUCUAGUGACAGGUCCUAGUUUUGGACCAUGGCCAGCCAGUCGUUCAUAAAACAACAGAGGAUUGAGCAUCA
B10: chr12:95365269:95365270:-_ENSG00000184752_ENST00000327772|hu_hu|FALSE|FALSE (ssRNA)
RNA: GGGAGUUCUACAGUCCGACGAUCUCAUUGUCUUUACUUGUAAGGUGUUGAAGGUGGGAUCCACUCCUGAAUCUUCUUUCUAGUGGUAGAAUAAGGUACAUAUUGUUCUGGGGUGCCAGUCACGUUGAAUUUAUGGUUCGUCCACAACAGAGGAUUGAGCAUCA
B11: chr5:138643207:138643208:+_ENSG00000015479_ENST00000510056|hu_hu|FALSE|FALSE (ssRNA)
RNA: GGGAGUUCUACAGUCCGACGAUCCAUCCUUCCAAGAGAUGCUGGCAUACUUAAAGACUGGGUAGCAGCAGCAAGAAGGCCUAUUCCUGCCGCAGACAGGUCACGCCCAUGACCCUGUGAGUCCCUACUGAGAGAUGACUGCUGCAACAGAGGAUUGAGCAUCA
B12: chr6:29325759:29325760:+_ENSMUSG00000029767_ENSMUST00000031779|mus_mus|motif|central (ssRNA)
RNA: GGGAGUUCUACAGUCCGACGAUCAGAUGAGAAAACGGCUCAAGUGGUCCUCAAACCAAGAGCCCCCUCUGUACAUCCUUCGGUCCUUGAGGCAAAGCUCAAGCCCUGGUGAGCAGAGGCCUGGGAGAAGAGUGGUUUGCCUUCCAACAGAGGAUUGAGCAUCA
B13: 196581395_196581515_1956_CDS_ENSG00000196950_ENST00000359634|human|control|control (ssRNA)
RNA: GGGAGUUCUACAGUCCGACGAUCAUGAAUGGUAUGUAAUCCAUCACUGUGAGAAUGGUCUAUGAUUUUCUCCUCUUCUAUACAAAGGUAAUUUUUAGGAGGGGAUUCUUGUUGGCCUUCUAAAUCUGUCAGUUCAGUUUCAUUCAACAGAGGAUUGAGCAUCA
B14: chr17:57737884:57737885:+_ENSG00000141367_ENST00000269122|hu_hu|motif|central (ssRNA)
RNA: GGGAGUUCUACAGUCCGACGAUCAUUUCCCUGGGCAAAAAGAGCAUUAAAUUUCCGGGCAAAGAGUUCUUCAGCACCGGCGGAGUUAUUACGUACAGCCAUUCUCAGAGCCAAAUCAGGAUUUUGUAGAACAUUGGUGAUGUACAACAGAGGAUUGAGCAUCA
B15: chr12:46623017:46623018:-_ENSG00000111371_ENST00000398637|hu_mus|FALSE|FALSE (ssRNA)
RNA: GGGAGUUCUACAGUCCGACGAUCAAGGCCCAAGAUUCCACUGCCCAUGAUGGCGUUGCUCAGGUUAAAGACAGACAUUCCCAGGGAGGUUGUUCCUGGAAUAUACUCGUCGCAUUUCCUUUUCUCCAGAUGGCUGUUUGUGAGCAACAGAGGAUUGAGCAUCA
B16: 37438484_37438604_3191_3pUTR_ENSMUSG00000026915_ENSMUST00000028279|mouse|control|control (ssRNA)
RNA: GGGAGUUCUACAGUCCGACGAUCGACAAUCAGAGAGCGAGUUUUUAUGGGGAUCCUGUUGCUGCUUUAGAUUCUGAUAUCAAAGAAGAGGAAAGGAGACUCUUCAAGGAAUUCCAAAAAAAAAAAAAAACCUGCUAAUCAUCUCAACAGAGGAUUGAGCAUCA
B17: chr17:57759754:57759755:+_ENSG00000141367_ENST00000269122|hu_hu|motif|central (ssRNA)
RNA: GGGAGUUCUACAGUCCGACGAUCAUCAUAACAACGGUCACCAACUUGUUGGAUAUGAGCAUUAUUUGGUCCAUUGAUAAAUUCUUCGGACUCUGCAAGGCGGUUUGUUUUAGCCAGUGCGAAUAUCAGUUCUGUCUCCACAUACAACAGAGGAUUGAGCAUCA
B18: chr5:147795600:147795601:+_ENSG00000145868_ENST00000340253|hu_mus|FALSE|FALSE (ssRNA)
RNA: GGGAGUUCUACAGUCCGACGAUCACUCAGACCAACUCGAGCACAGCCCUUGGGUGGCUCACGGAACAUCUGGUCCAGAGAAAUAAAUUCCAGGCUGGGCAAUAAUUCAACAAACUGGCCAAAAGAAUCCAGCUUCAAAGCAUGCAACAGAGGAUUGAGCAUCA
B19: chr14:78894897:78894898:-_ENSMUSG00000022016_ENSMUST00000123853|mus_hu|FALSE|FALSE (ssRNA)
RNA: GGGAGUUCUACAGUCCGACGAUCUUUAAAUUUUAACAGUGGGUUUCUAAAAAGAAAACAGUAAAAUAAAAGAGGGAACAAACUGGCAAGGUUAAAGUACUCCCUUACACACACACACACACACACACACACACACACACACACCAACAGAGGAUUGAGCAUCA
B20: 153456635_153456755_558_3pUTR_ENSG00000109670_ENST00000281708|human|control|control (ssRNA)
RNA: GGGAGUUCUACAGUCCGACGAUCCCGCCCCCCCGGCCGGGGGGUGGUUGCCGAGCUUGGUUGGGGCCCCGGUUCAUACACUCCGGGGCAAGAUGCUACGGCCCCGGGCGGGUGGCCGAGUCGGCGGCAAGGCGAGGGACCCGGCAACAGAGGAUUGAGCAUCA
B21: chr6:38652254:38652255:-_ENSG00000124767_ENST00000373365|hu_hu|hu_hu_hu_mus_False|18_58 (ssRNA)
RNA: GGGAGUUCUACAGUCCGACGAUCCGAGAACUUCAUAGCAGGGAAGUCAAGCUUCUGCAGGAGGGUCAGUCCAAGAACUCUAGUAUAAAAAUCCAGGGACUUCUUAGGAUCCUUAAUUCGUAGCAUGGUUUGCUGCAGUAGAAACAACAGAGGAUUGAGCAUCA
B22: 46966873_46967914_508_3pUTR_ENSMUSG00000036568_ENSMUST00000040624|mouse|control|control (ssRNA)
RNA: GGGAGUUCUACAGUCCGACGAUCAAAAUUGAAUUAGAAUUGGCUGCAGAAUACCCUGCGUUCGUCACAUCAUCGCUGCCCGAUUUACUGCUAGGUCCGUGCAGAAAAUAGUUCAAUGCUUGUGGGUCUCCAAUAAGAUCGAGGCAACAGAGGAUUGAGCAUCA

The experiment concerns the target T1, UNK ZnF1-3. In words: nsRBNS (natural sequence RNA bind-n-seq); RBNS binding buffer (assumed for nsRBNS): 25 mM Tris pH 7.5, 150 mM KCl, 3 mM MgCl2, 0.01% Triton X-100, 500 ug/ml BSA, 20 U/ml SUPERase-In, 4 C; UNK is unkempt and MSI1 is Musashi-1; names of the RNAs are library labels; protein concentration not given here; high values mean tight binding.
Molecule B1 gave a binding signal of 0.759 enrichment R.

As to B2, the binding signal turned out to be 0.915 enrichment R.

In the case of B3, the binding signal was determined as 0.821 enrichment R.

The molecule B4 showed a binding signal of 1.74 enrichment R.

On to B5, for which the binding signal stood at 0.405 enrichment R.

B6: the binding signal amounted to 0.295 enrichment R.

On to B7, for which the binding signal was found to be 1.11 enrichment R.

Turning to B8, the binding signal worked out at 0.858 enrichment R.

B9 had a binding signal of 1.21 enrichment R.

As to B10, the binding signal stood at 0.825 enrichment R.

Take B11: the binding signal was determined as 0.853 enrichment R.

Consider B12, for which the binding signal is 0.652 enrichment R.

For B13, the binding signal amounted to 0.514 enrichment R.

As to B14, the binding signal came out at 1.88 enrichment R.

In turn, B15 displayed a binding signal of 1.04 enrichment R.

The molecule B16 yielded a binding signal of 3.02 enrichment R.

For the molecule B17, the binding signal is 1.27 enrichment R.

Regarding B18, the binding signal stood at 0.863 enrichment R.

On to B19, for which the binding signal came out at 2.55 enrichment R.

Take B20: the binding signal is 0.557 enrichment R.

As for B21, the binding signal is 0.907 enrichment R.

As for B22, the binding signal amounted to 1.21 enrichment R.
